Reference: PubChem BioAssay AID504333 (National Center for Advancing Translational Sciences (NCATS), 2011)
In all, about 360,000 compounds went through this assay and about 16,000 (4.4%) were called active. This list was built around the results that the source calls inconclusive (neither active nor inactive); the mix of calls is not that of the screen. Calls come from the whole dose curve; as a rule, active = well fitted inhibition curve with a large enough effect; inconclusive = small, poorly fitted or top-dose-only effect; inactive = no such curve, though single readings can be large or run the other way. Where the call is inconclusive, the potency comes from a doubtful curve fit. The source holds several records for some structures; these can differ, active in one and inactive in another.

Molecular target: Bromodomain adjacent to zinc finger domain protein 2B (Homo sapiens) (UniProt Q9UIF8)
Sequence of UniProt Q9UIF8 (Q9UIF8 whole entry, looked up, the tested form may be a part): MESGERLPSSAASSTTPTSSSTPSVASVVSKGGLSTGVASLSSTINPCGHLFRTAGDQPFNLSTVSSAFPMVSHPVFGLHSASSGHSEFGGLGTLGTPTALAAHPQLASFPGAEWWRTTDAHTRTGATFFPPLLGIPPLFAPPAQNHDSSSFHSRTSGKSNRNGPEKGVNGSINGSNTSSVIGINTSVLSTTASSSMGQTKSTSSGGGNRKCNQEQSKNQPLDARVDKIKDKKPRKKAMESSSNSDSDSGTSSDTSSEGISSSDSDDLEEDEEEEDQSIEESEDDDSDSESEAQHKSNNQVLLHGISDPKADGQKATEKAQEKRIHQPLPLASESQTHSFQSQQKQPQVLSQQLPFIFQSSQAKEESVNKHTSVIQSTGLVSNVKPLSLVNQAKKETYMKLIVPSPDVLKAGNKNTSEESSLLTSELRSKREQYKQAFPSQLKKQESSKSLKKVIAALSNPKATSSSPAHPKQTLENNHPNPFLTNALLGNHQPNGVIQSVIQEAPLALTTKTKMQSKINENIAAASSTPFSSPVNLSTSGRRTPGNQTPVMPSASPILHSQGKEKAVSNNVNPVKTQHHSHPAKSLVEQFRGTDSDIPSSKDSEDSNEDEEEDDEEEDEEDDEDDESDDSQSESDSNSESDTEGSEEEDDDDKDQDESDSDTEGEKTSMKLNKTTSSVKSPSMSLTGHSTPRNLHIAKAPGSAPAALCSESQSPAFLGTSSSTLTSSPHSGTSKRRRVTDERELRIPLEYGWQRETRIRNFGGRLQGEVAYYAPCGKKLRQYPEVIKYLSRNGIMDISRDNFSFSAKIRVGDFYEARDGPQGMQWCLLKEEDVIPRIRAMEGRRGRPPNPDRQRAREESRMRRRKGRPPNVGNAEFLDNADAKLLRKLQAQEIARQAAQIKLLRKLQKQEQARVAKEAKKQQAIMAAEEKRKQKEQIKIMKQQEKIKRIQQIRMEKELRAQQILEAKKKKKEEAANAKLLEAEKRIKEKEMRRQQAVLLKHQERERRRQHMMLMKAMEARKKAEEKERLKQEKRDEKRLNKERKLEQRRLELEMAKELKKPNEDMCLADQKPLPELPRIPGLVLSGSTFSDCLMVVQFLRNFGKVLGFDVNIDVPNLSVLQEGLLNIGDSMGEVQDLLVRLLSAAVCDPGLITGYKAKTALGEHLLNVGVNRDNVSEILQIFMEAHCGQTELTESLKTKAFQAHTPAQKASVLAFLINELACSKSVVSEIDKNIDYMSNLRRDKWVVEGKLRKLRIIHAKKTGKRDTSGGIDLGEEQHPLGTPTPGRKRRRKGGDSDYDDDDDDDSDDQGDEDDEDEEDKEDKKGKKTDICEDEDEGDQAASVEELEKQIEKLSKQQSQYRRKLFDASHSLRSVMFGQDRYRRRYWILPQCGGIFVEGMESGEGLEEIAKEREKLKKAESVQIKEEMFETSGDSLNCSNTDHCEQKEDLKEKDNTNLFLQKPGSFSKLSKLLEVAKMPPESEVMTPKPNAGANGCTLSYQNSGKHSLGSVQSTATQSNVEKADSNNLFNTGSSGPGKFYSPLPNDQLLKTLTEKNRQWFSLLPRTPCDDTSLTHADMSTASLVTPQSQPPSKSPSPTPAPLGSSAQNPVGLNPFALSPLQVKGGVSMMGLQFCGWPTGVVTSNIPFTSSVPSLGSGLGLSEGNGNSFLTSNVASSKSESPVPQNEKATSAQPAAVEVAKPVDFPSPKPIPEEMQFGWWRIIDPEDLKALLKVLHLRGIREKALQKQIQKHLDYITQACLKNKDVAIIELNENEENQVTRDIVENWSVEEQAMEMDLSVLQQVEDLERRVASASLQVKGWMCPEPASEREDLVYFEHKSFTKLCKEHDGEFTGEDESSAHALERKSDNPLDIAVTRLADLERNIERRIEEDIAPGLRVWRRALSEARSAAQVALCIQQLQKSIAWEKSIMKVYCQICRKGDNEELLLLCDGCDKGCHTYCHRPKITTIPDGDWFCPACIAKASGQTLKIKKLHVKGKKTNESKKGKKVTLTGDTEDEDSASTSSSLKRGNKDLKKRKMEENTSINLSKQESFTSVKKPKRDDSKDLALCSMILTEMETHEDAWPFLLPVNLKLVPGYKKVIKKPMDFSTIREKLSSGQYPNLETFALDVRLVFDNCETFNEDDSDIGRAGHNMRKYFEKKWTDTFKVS
Test: qHTS Assay for Inhibitors of BAZ2B; note: nearly all actives have a fitted effect of over 60% in size
Conditions: AlphaScreen BAZ2B-H3K14Ac peptide displacement; activity change, negative = inhibition: at 114 µM (top of the series) unless noted
How it was run: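 Multi-concentration screen (max 110 uM) measuring displacement of acetylated histone H3 peptide from BAZ2B by AlphaScreen, using 50 nM protein, 50 nM peptide and 10 ug/mL streptavidin donor plus Ni-chelate acceptor beads.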
% is set by controls: 0 for no effect and ±100 for the full control effect; potency is the fitted concentration of half-maximal effect; tags give direction and shape of the fitted curve.

Compound | activity change, negative = inhibition | Potency
CCc1nnc(NC(=O)c2nc(S(C)(=O)=O)ncc2Cl)s1 | inactive: -26.6% | 
Cc1cc(SCC(=O)c2ccc(O)c(O)c2)n2nc(C)c(-c3ccccc3)c2n1 |  | inconclusive: 35.5 µM [inhibitor, partial curve]
CS(=O)(=O)N1Cc2ccccc2CC1C(=O)O (configuration not stated) |  | inconclusive: 56.2 µM [inhibitor, partial curve]
CCc1ccccc1N(CC(=O)NC(C)(C)C)C(=O)CCC(=O)Nc1ccccn1 | inactive: 14.9% | 
COc1cc2c(C(=O)N3CCN(c4cccc(C)c4)C(C)C3)cn(CC(C)C)c(=O)c2cc1OC (configuration not stated) |  | inconclusive: 79.4 µM [inhibitor, partial curve]
COc1cc(OC)cc(C(=O)NCC(=O)OCC(=O)N2c3ccccc3NC(=O)C2(C)C)c1 |  | inconclusive: 50.1 µM [inhibitor, partial curve]
CCCC(C)C(=O)Nc1nc(C)c(-c2csc(Nc3ccccc3OC)n2)s1 (configuration not stated) |  | inconclusive: 35.5 µM [inhibitor, partial curve]
O=C(c1ccccc1)C1CCN(c2ncccc2[N+](=O)[O-])CC1 |  | inconclusive: 39.8 µM [inhibitor, partial curve]
CCOc1cc(S(=O)(=O)NC2CCCCC2)ccc1F | inactive: -0.354% | 
COc1ccc(Cl)cc1NC(=O)c1cc(S(=O)(=O)N2CCc3ccccc32)cn1C |  | inconclusive: 25.1 µM [inhibitor, full curve]
COc1ccc(C(=O)c2c[nH]c(C(=O)N=CN(C)C)c2)cc1 |  | inconclusive: 70.8 µM [inhibitor, single point]
O=C(N/N=C/c1ccsc1)c1c[nH]c2ccccc12 | inactive: -13.7% | 
CCCCCCCCCn1c2c(c(=N)c3c1CCC3)CCCC2 | inactive: 1.99% | 
CC1CCCCC1NC(=O)COC(=O)c1c2c(nc3ccccc13)/C(=C/c1ccco1)CC2 (configuration not stated) |  | active: 44.7 µM
CCOc1ccc(NC(=O)Cn2c(CCC(=O)O)ccc2-c2ccc(Cl)cc2)cc1 |  | inconclusive: 50.1 µM [inhibitor, partial curve]
Cc1csc(SCC(=O)c2cc(C)n(Cc3cccs3)c2C)n1 |  | inconclusive: 44.7 µM [inhibitor, partial curve]
COc1cccc(NC(=O)Cn2c(=O)n(-c3cccc(OC)c3)c(=O)c3c4c(sc32)CCCC4)c1 | inactive: 0.875% | 
Oc1c(Cl)cc(Cl)cc1/C=N/NC(=S)NC1CC2C=CC1C2 (configuration not stated) |  | active: 7.94 µM
COc1ccc(NS(=O)(=O)c2ccc3[nH]c4c(c3c2)CCCC4)c(OC)c1 |  | inconclusive: 35.5 µM [inhibitor, partial curve]
O=C(CCc1ccccc1)NCC(c1ccco1)N1CCc2ccccc21 (configuration not stated) |  | inconclusive: 79.4 µM [inhibitor, single point]
O=C(CN1CCN(S(=O)(=O)/C=C/c2ccccc2)CC1)NC(=O)NCc1ccco1 |  | active: 50.1 µM
O=C(CNc1cccc(S(=O)(=O)N2CCCCC2)c1)Nc1ccccc1F |  | inconclusive: 79.4 µM [inhibitor, single point]
COc1cc(CNCc2ccccc2)cc(Cl)c1OC | inactive: -18.7% | 
Cc1cc(CN2CCCC(C(=O)Nc3cccc(-n4cccn4)c3)C2)cc(C)c1O (configuration not stated) | inactive: -10.1% | 

Compound | activity change, negative = inhibition | Potency
O=C1C(Cl)=C(NC(=O)c2ccccc2)C(=O)C(Cl)=C1NC(=O)c1ccccc1 |  | inconclusive: 5.01 µM [inhibitor, full curve, poor fit]
Cc1ccc(F)cc1NCC(=O)Nc1ccc(Br)cc1 | inactive: -1.78% | 
N=C1C(c2ccccc2)=C(O)CN1c1cccc(S(=O)(=O)Nc2cccc(C(F)(F)F)c2)c1 |  | inconclusive: 79.4 µM [inhibitor, single point]
CCn1c(=S)sc2c(=O)[nH]c(C)nc21 | inactive: -5.4% | 
COCCn1c(SCC(=O)c2[nH]c(C)c(C(C)=O)c2C)nc2ccccc21 |  | inconclusive: 89.1 µM [inhibitor, single point]
O=C(NCCc1ccccc1)C(=O)NCC(c1cccnc1)N1CCN(c2ccc(F)cc2)CC1 (configuration not stated) |  | inconclusive: 79.4 µM [inhibitor, single point]
Cc1cccc(NC(=O)[C@H](NC(=O)[C@@H]2Cc3ccccc3CN2)c2ccccc2)c1 |  | inconclusive: 79.4 µM [inhibitor, single point]
CCCN1CNc2c(c(=O)[nH]c(=S)n2-c2ccccc2Cl)C1 |  | inconclusive: 100 µM [inhibitor, partial curve]
O=[N+]([O-])c1ccc(Cl)cc1N1CCCC1 |  | inconclusive: 0.708 µM [inhibitor, full curve, poor fit]
COc1ccc(OCC(O)CN2CCc3ccccc3C2)cc1 (configuration not stated) |  | inconclusive: 79.4 µM [inhibitor, single point]
CCOC(=O)c1c(C)c(C(=O)NCc2cccnc2)c(C)n1C |  | inconclusive: 50.1 µM [inhibitor, partial curve]
CCCc1cc(=O)[nH]c(SCc2ccccc2Cl)n1 |  | inconclusive: 35.5 µM [inhibitor, single point]
c1ccc(C2=NNC(c3ccccn3)=NN2)nc1 |  | active: 2.82 µM
O=C(O)c1ccc2c(c1)C(=O)N([C@H](Cc1ccc(O)c(O)c1)C(=O)O)C2=O |  | inconclusive: 79.4 µM [inhibitor, single point]
CCOC(=O)N1CCN(Cc2ccc3ccccc3c2)CC1 |  | inconclusive: 89.1 µM [inhibitor, single point]
COc1ccccc1Nc1nc(C)cs1 |  | active: 79.4 µM
Cc1ccc(-c2noc(CSc3nnc(-c4ccc(Cl)cc4)n3C)n2)cc1 | inactive: -2.06% | 
Cc1cccc(-c2nc3ccccc3c(=O)n2NC(=O)/C=C/c2ccc([N+](=O)[O-])cc2)c1 | inactive: -37.1% | 
Cc1ccc(CNC(=O)CCC2CCCN(Cc3cccc4cccnc34)C2)o1 (configuration not stated) |  | inconclusive: 79.4 µM [inhibitor, partial curve]
CCOc1ccc2nc(NS(=O)(=O)Cc3ccccc3)sc2c1 |  | inconclusive: 6.31 µM [inhibitor, full curve, poor fit]
Cc1ccc(/C=N/Nc2cc(C)nc(NCc3ccccc3)n2)cc1 |  | inconclusive: 50.1 µM [inhibitor, partial curve]
CCOc1ccc(N=Cc2c(O)cc(C)oc2=O)cc1 | inactive: -4.22% | 
COc1ccccc1-c1nc(C#N)c(N2CCN(c3ccccc3)CC2)o1 |  | active: 11.2 µM
O=C(NCc1ccco1)C(c1cccs1)N(C(=O)Cc1cccs1)c1ccccc1 (configuration not stated) |  | inconclusive: 89.1 µM [inhibitor, single point]

Compound | activity change, negative = inhibition | Potency
O=C(CCCc1nc(-c2ccco2)no1)Nc1ccccc1[N+](=O)[O-] |  | inconclusive: 50.1 µM [inhibitor, partial curve]
COc1ccc(C2=NN(C(C)=O)C(c3cn(-c4ccccc4)nc3-c3cccs3)C2)cc1 (configuration not stated) | inactive: -21.4% | 
Cc1c(CCC(=O)O)c(=O)oc2cc3occ(-c4ccccc4)c3cc12 |  | inconclusive: 79.4 µM [inhibitor, single point]
COc1cccc(OCC(O)CN2CCN(C)CC2)c1 (configuration not stated) |  | active: 50.1 µM
CN(CCc1ccccn1)C(=S)NC(=O)c1ccco1 |  | inconclusive: 89.1 µM [inhibitor, single point]
Nc1c(NCCc2ccccc2)c2ccccc2oc1=O |  | inconclusive: 56.2 µM [inhibitor, partial curve]
O=C(CCc1n[nH]c(=O)[nH]c1=O)N/N=C/c1ccco1 |  | active: 50.1 µM
COc1ccc(/C=C(\NC(=O)c2ccc(C)cc2)C(=O)NCCCn2ccnc2)cc1OC |  | active: 50.1 µM
CCn1c(SCC(=O)NC2CC2)nnc1-c1ccccn1 |  | inconclusive: 89.1 µM [inhibitor, single point]
COc1cc(C2Nc3ccccc3C(=O)N2c2ccccc2OC)ccc1O (configuration not stated) |  | inconclusive: 100 µM [inhibitor, single point]
COc1ccc(N2CCN(C(=O)CN(Cc3ccc(Cl)cc3)S(C)(=O)=O)CC2)cc1 |  | inconclusive: 89.1 µM [inhibitor, single point]
COC(=O)/C=C1/C(=O)N/C(=N\c2nc(C)cc(C)n2)N1c1ccc(OC)cc1 |  | inconclusive: 79.4 µM [inhibitor, single point]
O=C(COc1ccc(-c2ccccc2)cc1)N1CCCC1 |  | inconclusive: 89.1 µM [inhibitor, single point]
Cn1nc(C(C)(C)C)cc1C(=O)O |  | inconclusive: 89.1 µM [inhibitor, single point]
OCCN(Cc1ccccc1)Cc1ccccc1O |  | active: 56.2 µM
O=C(COc1ccccc1Cl)Nc1ccccc1C(=O)Nc1cccc(C(=O)O)c1 | inactive: -16.5% | 
COc1ccccc1CNC(=O)c1ccc(OC(F)F)c(OC)c1 | inactive: 3.3% | 
O=C(c1ccc(-c2ccccc2Cl)o1)N1CCCC(C(F)(F)F)C1 (configuration not stated) |  | inconclusive: 39.8 µM [inhibitor, full curve]
Cn1c(=N)n(CC(=O)C(C)(C)C)c2ccccc21 |  | inconclusive: 50.1 µM [inhibitor, partial curve]
Cc1[nH]c2ccccc2c1C(=O)C(=O)NCCOc1ccccc1 | inactive: -24.9% | 
CCS(=O)(=O)N1CCN(c2ccc([N+](=O)[O-])c(N3CCOCC3)c2)CC1 |  | inconclusive: 79.4 µM [inhibitor, partial curve]
O=C(O)CC/C(=N\Nc1ccc(S(=O)(=O)N2CCOCC2)cc1[N+](=O)[O-])c1cccs1 |  | inconclusive: 39.8 µM [inhibitor, partial curve]
COc1cc(C2CC(=O)N3CN(Cc4ccco4)CSC3=C2C#N)ccc1OCc1ccccc1 (configuration not stated) |  | active: 44.7 µM
Cc1ccc(N2CC(C(=O)Nc3nc4ccc(S(C)(=O)=O)cc4s3)CC2=O)cc1 (configuration not stated) |  | inconclusive: 79.4 µM [inhibitor, single point]
